Test results from ChEMBL document CHEMBL5606460, “ASAP - DENV-2 NS2B-NS3 protease fluorescence single point” (2024).
The whole screen tested about 2,000 compounds, of which about 110 (5.5%) showed an effect of 50% or more. The list shows a part of the results.

Target: Genome polyprotein (dengue virus type 2) (UniProt P29990)

SMILES: N=C(N)NCCC[C@H](NC(=O)c1nccs1)C(=O)N[C@@H](CCCCN)C(=O)N[C@@H](C(N)=O)c1ccc(OCc2ccc(C(F)(F)F)cc2)cc1
- inhibition (Thailand/16681/1984, Concentration 49.5 uM, Number of replicates 2.0, Standard deviation 0.01715005842126491 %): 96.2%
- inhibition (Thailand/16681/1984, Concentration 49.5 uM, Number of replicates 2.0, Standard deviation 0.019135343573522066 %): 96.1%
- inhibition (Thailand/16681/1984, Concentration 49.5 uM, Number of replicates 2.0, Standard deviation 0.03570815875758177 %): 95.6%
- inhibition (Thailand/16681/1984, Concentration 49.5 uM, Number of replicates 2.0, Standard deviation 0.054562972907415325 %): 95.2%
- inhibition (Thailand/16681/1984, Concentration 49.5 uM, Number of replicates 2.0, Standard deviation 0.06140896980473687 %): 95.7%
- inhibition (Thailand/16681/1984, Concentration 49.5 uM, Number of replicates 2.0, Standard deviation 0.10612104410339795 %): 97.2%
- inhibition (Thailand/16681/1984, Concentration 49.5 uM, Number of replicates 2.0, Standard deviation 0.10687631562871318 %): 95.4%
- inhibition (Thailand/16681/1984, Concentration 49.5 uM, Number of replicates 2.0, Standard deviation 0.10916370939109642 %): 95.9%
- inhibition (Thailand/16681/1984, Concentration 49.5 uM, Number of replicates 2.0, Standard deviation 0.11089004430610264 %): 91.3%
- inhibition (Thailand/16681/1984, Concentration 49.5 uM, Number of replicates 2.0, Standard deviation 0.12066541576232535 %): 96.7%
- inhibition (Thailand/16681/1984, Concentration 49.5 uM, Number of replicates 2.0, Standard deviation 0.12893024416791762 %): 95%
- inhibition (Thailand/16681/1984, Concentration 49.5 uM, Number of replicates 2.0, Standard deviation 0.18367124536344298 %): 96.2%
- inhibition (Thailand/16681/1984, Concentration 49.5 uM, Number of replicates 2.0, Standard deviation 0.22697527774705212 %): 95.7%
- inhibition (Thailand/16681/1984, Concentration 49.5 uM, Number of replicates 2.0, Standard deviation 0.262397512284336 %): 95.2%
- inhibition (Thailand/16681/1984, Concentration 49.5 uM, Number of replicates 2.0, Standard deviation 0.3581065989316027 %): 96.5%
- inhibition (Thailand/16681/1984, Concentration 49.5 uM, Number of replicates 2.0, Standard deviation 0.6751965592419794 %): 94.5%
- inhibition (Thailand/16681/1984, Concentration 49.5 uM, Number of replicates 4.0, Standard deviation 0.3877656068031149 %): 96.3%
- inhibition (Thailand/16681/1984, Concentration 49.8 uM, Number of replicates 2.0, Standard deviation 0.008615490185202914 %): 98.3%
- inhibition (Thailand/16681/1984, Concentration 49.95 uM, Number of replicates 2.0, Standard deviation 0.5898131133050937 %): 90.4%
- inhibition (Thailand/16681/1984, Concentration 50.0 uM, Number of replicates 2.0, Standard deviation 2.607110988642393 %): 82.5%
- inhibition (Thailand/16681/1984, Concentration 98.52 uM, Number of replicates 2.0, Standard deviation 0.0007930351015809821 %): 99.7%
- inhibition (Thailand/16681/1984, Concentration 99.01 uM, Number of replicates 2.0, Standard deviation 0.014371738167426778 %): 98.3%
- inhibition (Thailand/16681/1984, Concentration 99.01 uM, Number of replicates 2.0, Standard deviation 0.015720437319775387 %): 97.7%
- inhibition (Thailand/16681/1984, Concentration 99.01 uM, Number of replicates 2.0, Standard deviation 0.019361925031116632 %): 97.6%
- inhibition (Thailand/16681/1984, Concentration 99.01 uM, Number of replicates 2.0, Standard deviation 0.03515249470681415 %): 98%
- inhibition (Thailand/16681/1984, Concentration 99.01 uM, Number of replicates 2.0, Standard deviation 0.051056355111308946 %): 98.5%
- inhibition (Thailand/16681/1984, Concentration 99.01 uM, Number of replicates 2.0, Standard deviation 0.05114267185705925 %): 98.8%
- inhibition (Thailand/16681/1984, Concentration 99.01 uM, Number of replicates 2.0, Standard deviation 0.05214610402640662 %): 98.2%
- inhibition (Thailand/16681/1984, Concentration 99.01 uM, Number of replicates 2.0, Standard deviation 0.05969881927955883 %): 97.8%
- inhibition (Thailand/16681/1984, Concentration 99.01 uM, Number of replicates 2.0, Standard deviation 0.06259043026219424 %): 97.6%
- inhibition (Thailand/16681/1984, Concentration 99.01 uM, Number of replicates 2.0, Standard deviation 0.0932706385798204 %): 98.3%
- inhibition (Thailand/16681/1984, Concentration 99.01 uM, Number of replicates 2.0, Standard deviation 0.1268262734902538 %): 98.1%
- inhibition (Thailand/16681/1984, Concentration 99.01 uM, Number of replicates 2.0, Standard deviation 0.1304084184388917 %): 95.2%
- inhibition (Thailand/16681/1984, Concentration 99.01 uM, Number of replicates 2.0, Standard deviation 0.16720632611157116 %): 97.6%
- inhibition (Thailand/16681/1984, Concentration 99.01 uM, Number of replicates 2.0, Standard deviation 0.19540492798887588 %): 98.3%
- inhibition (Thailand/16681/1984, Concentration 99.01 uM, Number of replicates 2.0, Standard deviation 0.2057251739026474 %): 97.9%
- inhibition (Thailand/16681/1984, Concentration 99.01 uM, Number of replicates 2.0, Standard deviation 0.39058866931676656 %): 97.1%
- inhibition (Thailand/16681/1984, Concentration 99.01 uM, Number of replicates 4.0, Standard deviation 0.160745991426317 %): 98.2%
- inhibition (Thailand/16681/1984, Concentration 99.5 uM, Number of replicates 2.0, Standard deviation 0.012726325201561474 %): 99.3%
- inhibition (Thailand/16681/1984, Concentration 99.5 uM, Number of replicates 2.0, Standard deviation 0.04880672492519146 %): 99.4%
- inhibition (Thailand/16681/1984, Concentration 99.9 uM, Number of replicates 2.0, Standard deviation 0.33233565552852545 %): 95.1%
- inhibition (Thailand/16681/1984, Concentration 100.0 uM, Number of replicates 2.0, Standard deviation 1.0120962127020525 %): 91.1%
- inhibition (Thailand/16681/1984, Concentration 198.0 uM, Number of replicates 2.0, Standard deviation 0.008588516202155942 %): 97.6%
- inhibition (Thailand/16681/1984, Concentration 198.0 uM, Number of replicates 2.0, Standard deviation 0.009273655371549035 %): 99.3%
- inhibition (Thailand/16681/1984, Concentration 198.0 uM, Number of replicates 2.0, Standard deviation 0.015984782353635714 %): 99.5%
- inhibition (Thailand/16681/1984, Concentration 198.0 uM, Number of replicates 2.0, Standard deviation 0.02043009475977673 %): 99%
- inhibition (Thailand/16681/1984, Concentration 198.0 uM, Number of replicates 2.0, Standard deviation 0.03091218457183012 %): 99%
- inhibition (Thailand/16681/1984, Concentration 198.0 uM, Number of replicates 2.0, Standard deviation 0.034661568215359255 %): 98.9%
- inhibition (Thailand/16681/1984, Concentration 198.0 uM, Number of replicates 2.0, Standard deviation 0.04180427892619749 %): 98.9%
- inhibition (Thailand/16681/1984, Concentration 198.0 uM, Number of replicates 2.0, Standard deviation 0.05357033033128675 %): 99.3%
- inhibition (Thailand/16681/1984, Concentration 198.0 uM, Number of replicates 2.0, Standard deviation 0.055172584924276895 %): 99.5%
- inhibition (Thailand/16681/1984, Concentration 198.0 uM, Number of replicates 2.0, Standard deviation 0.06522309100757873 %): 99.1%
- inhibition (Thailand/16681/1984, Concentration 198.0 uM, Number of replicates 2.0, Standard deviation 0.07510635839598934 %): 99.3%
- inhibition (Thailand/16681/1984, Concentration 198.0 uM, Number of replicates 2.0, Standard deviation 0.08009654525967919 %): 99.1%
- inhibition (Thailand/16681/1984, Concentration 198.0 uM, Number of replicates 2.0, Standard deviation 0.10986503295031769 %): 99.2%
- inhibition (Thailand/16681/1984, Concentration 198.0 uM, Number of replicates 2.0, Standard deviation 0.15163694309685882 %): 99%
- inhibition (Thailand/16681/1984, Concentration 198.0 uM, Number of replicates 2.0, Standard deviation 0.1571827940113163 %): 98.9%
- inhibition (Thailand/16681/1984, Concentration 198.0 uM, Number of replicates 2.0, Standard deviation 0.24491837126989802 %): 98.3%
- inhibition (Thailand/16681/1984, Concentration 198.0 uM, Number of replicates 4.0, Standard deviation 0.0821711955101111 %): 99.2%
- inhibition (Thailand/16681/1984, Concentration 295.6 uM, Number of replicates 2.0, Standard deviation 0.015100035709695026 %): 100%
- inhibition (Thailand/16681/1984, Concentration 295.6 uM, Number of replicates 2.0, Standard deviation 0.020829309708871917 %): 99.9%

SMILES: Cc1cc(CO)c2cccc(NCc3c(C)noc3C)c2n1
- inhibition (Thailand/16681/1984, Concentration 49.95 uM, Number of replicates 2.0, Standard deviation 0.8427159521442895 %): 0.852%
- inhibition (Thailand/16681/1984, Concentration 99.9 uM, Number of replicates 2.0, Standard deviation 0.2103451428490176 %): 5.75%

SMILES: N#Cc1ccc(C[C@H](NC(=O)c2ccccc2)C(=O)N2CCC[C@@H](CN)C2)cc1
- inhibition (Thailand/16681/1984, Concentration 49.5 uM, Number of replicates 2.0, Standard deviation 1.2392432810036351 %): -3.41%
- inhibition (Thailand/16681/1984, Concentration 99.01 uM, Number of replicates 2.0, Standard deviation 1.3682310134729216 %): -3.89%
- inhibition (Thailand/16681/1984, Concentration 198.0 uM, Number of replicates 2.0, Standard deviation 0.950885838847499 %): -4.55%

SMILES: CNC(=O)c1cc(Cl)ccc1NS(=O)(=O)c1[nH]ncc1C(=O)OC
- inhibition (Thailand/16681/1984, Concentration 49.5 uM, Number of replicates 2.0, Standard deviation 1.242021000664882 %): -1.06%
- inhibition (Thailand/16681/1984, Concentration 99.01 uM, Number of replicates 2.0, Standard deviation 0.08117786480507469 %): 0.923%
- inhibition (Thailand/16681/1984, Concentration 198.0 uM, Number of replicates 2.0, Standard deviation 0.003820190349027435 %): 2.41%
